This is an account of results in the BET-seq Pho4 binding data (Le et al. 2018).

The other results are listed elsewhere or left out. The energies were worked out here from pooled read counts, against the library average; single values are noisy.

This test deals with T1, Pho4 (S. cerevisiae) (UniProt P07270).
T1 sequence: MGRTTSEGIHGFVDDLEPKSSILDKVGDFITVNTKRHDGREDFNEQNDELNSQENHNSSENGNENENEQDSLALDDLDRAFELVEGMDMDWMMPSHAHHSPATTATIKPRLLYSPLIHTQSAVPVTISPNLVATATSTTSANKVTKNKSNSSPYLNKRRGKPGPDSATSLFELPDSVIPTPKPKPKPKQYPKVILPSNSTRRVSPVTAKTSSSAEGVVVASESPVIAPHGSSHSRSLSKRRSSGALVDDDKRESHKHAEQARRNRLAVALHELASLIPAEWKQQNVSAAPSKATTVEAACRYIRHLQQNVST
Put plainly: relative binding free energy (BET-seq); higher = weaker binding. To be noted: reference: library average.
As for TTATGCACGTGGATTC, the “relative binding free energy” value was found to be 0.08 kcal/mol. Then GTTGTCACGTGTGTTA, with 0.12 kcal/mol.

For GTGATCACGTGCTTTT, the “relative binding free energy” value came out at 0.11 kcal/mol. Then AGATGCACGTGACGGG, with 0.19 kcal/mol; and AGGGCCACGTGTCGTG, with -0.03 kcal/mol. On to AATGCCACGTGGTGTG, for which the “relative binding free energy” value was -0.19 kcal/mol. On to TAGTGCACGTGTTTCT, for which the “relative binding free energy” value is -0.02 kcal/mol. For the sequence GGAGGCACGTGCAGAG, the “relative binding free energy” value is -0.03 kcal/mol. The value for CGGTGCACGTGGCGTG was -0.06 kcal/mol; that for TGTTACACGTGAGCGT was 0.22 kcal/mol; that for TGATCCACGTGTGCGT was 0.18 kcal/mol.

Consider TTGTGCACGTGTTTCC, for which the “relative binding free energy” value was -0.05 kcal/mol. As for TCAATCACGTGTAGGG, the “relative binding free energy” value is 0.11 kcal/mol. GGGATCACGTGGATTT: the “relative binding free energy” value was determined as 0.32 kcal/mol. For the sequence GTAGACACGTGATGAT, the “relative binding free energy” value amounted to 0.22 kcal/mol. The value for ATTCGCACGTGTCGGG was 0.02 kcal/mol; that for TTAGTCACGTGGTATC was -0.07 kcal/mol. Then GTCGTCACGTGGGTTG, with 0.16 kcal/mol; and TCGGTCACGTGGTGCA, with 0.03 kcal/mol.

TAGGACACGTGCGGTA: the “relative binding free energy” value is 0 kcal/mol. The value for GTGGTCACGTGCAGTT was 0.16 kcal/mol; that for TCGGGCACGTGTGAGG was 0.01 kcal/mol. Then TGTTGCACGTGGGTTT, with -0.04 kcal/mol; and TCGGCCACGTGGAGGG, with -0.23 kcal/mol; and AGAGGCACGTGGGGAA, with -0.23 kcal/mol. In the case of CAGGCCACGTGAGGTG, the “relative binding free energy” value amounted to 0.02 kcal/mol. The value for TTGGTCACGTGAATAA was 0.31 kcal/mol; that for GTTTCCACGTGTTCGG was 0.23 kcal/mol; that for AATGTCACGTGATCGG was 0.17 kcal/mol.

As for TAATGCACGTGGCGTG, the “relative binding free energy” value was -0.05 kcal/mol. Then TTGTACACGTGATTAG, with 0.08 kcal/mol. Then TTCAGCACGTGTCAGG, with -0.04 kcal/mol. For AGGCGCACGTGTAAGT, the “relative binding free energy” value was -0.01 kcal/mol. Then GTGTGCACGTGTTTCT, with 0.01 kcal/mol; and TGAGGCACGTGGCTGA, with -0.2 kcal/mol; and GGTGCCACGTGTTTAT, with -0.1 kcal/mol. On to TTGTACACGTGTGTTC, for which the “relative binding free energy” value is 0.15 kcal/mol.

As for GGGGTCACGTGGCTGA, the “relative binding free energy” value came to 0.05 kcal/mol.

For AATGGCACGTGTCAGG, the “relative binding free energy” value was -0.13 kcal/mol. For TATAGCACGTGGATAG, the “relative binding free energy” value was -0.07 kcal/mol. TAAATCACGTGGAGTA: the “relative binding free energy” value stood at 0.13 kcal/mol. The value for CGGTGCACGTGGAACG was 0.04 kcal/mol; that for CTGTGCACGTGAAGTT was 0.08 kcal/mol; that for ATGCACACGTGGGGAG was -0.15 kcal/mol. For the sequence TTAAGCACGTGTAGAA, the “relative binding free energy” value was 0.03 kcal/mol. The value for GGTTCCACGTGGCAGG was -0.02 kcal/mol; that for TTAGACACGTGAGCTG was 0.36 kcal/mol. Take GTATGCACGTGGAAGT: the “relative binding free energy” value came out at 0.08 kcal/mol.

With GAGCTCACGTGGTTGT, the “relative binding free energy” value stood at 0.39 kcal/mol. The value for ATGTCCACGTGCGTGG was -0.09 kcal/mol. In the case of TAGATCACGTGAAGGG, the “relative binding free energy” value came out at 0.42 kcal/mol. With AATTTCACGTGTCTTT, the “relative binding free energy” value stood at 0.26 kcal/mol.

CGTTGCACGTGCTTGG: the “relative binding free energy” value is -0.21 kcal/mol. The value for TCTTTCACGTGTAGGA was 0.25 kcal/mol; that for TTCTGCACGTGCAGTG was -0.13 kcal/mol; that for TCAGACACGTGTGGTG was 0.08 kcal/mol. On to GGGATCACGTGTGCAT, for which the “relative binding free energy” value stood at 0.16 kcal/mol.

In the case of GGGTGCACGTGCGGTT, the “relative binding free energy” value was -0.02 kcal/mol. The value for ATTAGCACGTGTTATT was -0.01 kcal/mol; that for GGTTTCACGTGAAGTG was 0.37 kcal/mol; that for TTCTACACGTGTTGGG was -0.02 kcal/mol. As for TTGTACACGTGTTATC, the “relative binding free energy” value came to 0.11 kcal/mol. As to AGGGCCACGTGGGCAT, the “relative binding free energy” value is -0.18 kcal/mol. The value for TCTATCACGTGGCGTT was 0.03 kcal/mol. Turning to CTGTTCACGTGTCTGG, the “relative binding free energy” value is 0.23 kcal/mol. In the case of ATATTCACGTGAATTA, the “relative binding free energy” value amounted to 0.46 kcal/mol. GTGATCACGTGGGGTG: the “relative binding free energy” value was -0.05 kcal/mol. As to GATGTCACGTGTAGAG, the “relative binding free energy” value amounted to 0.15 kcal/mol. With TATTACACGTGATTGT, the “relative binding free energy” value came out at 0.21 kcal/mol.

With TGGGACACGTGTGTAG, the “relative binding free energy” value turned out to be 0.08 kcal/mol. Turning to CGGGCCACGTGGTAGG, the “relative binding free energy” value was -0.07 kcal/mol. The value for CTTTTCACGTGGGAGG was 0.15 kcal/mol; that for CGGGACACGTGTTAGG was -0.02 kcal/mol. The value for GTTTGCACGTGGTAAA was 0.03 kcal/mol; that for GGGTACACGTGGGTAT was 0.11 kcal/mol; that for GTGGGCACGTGCGTGA was -0.13 kcal/mol. Then CGTGGCACGTGGGACT, with -0.14 kcal/mol; and TGGTTCACGTGATAAG, with 0.38 kcal/mol; and GCTGTCACGTGGGAGT, with 0.05 kcal/mol. For the sequence TGTGGCACGTGACGAG, the “relative binding free energy” value was determined as 0.05 kcal/mol.

For TGTCTCACGTGTCTGT, the “relative binding free energy” value amounted to 0.19 kcal/mol.

For AGTTACACGTGGAGGC, the “relative binding free energy” value is -0.05 kcal/mol. The value for TGAACCACGTGTAGGG was -0.03 kcal/mol; that for ATGTGCACGTGTGGCC was 0.01 kcal/mol. Then TATCGCACGTGGTAGG, with -0.17 kcal/mol; and AGTGTCACGTGATGCA, with 0.12 kcal/mol; and TTTGACACGTGCGGGC, with -0.03 kcal/mol. Regarding TGGAGCACGTGATGTG, the “relative binding free energy” value was found to be 0 kcal/mol. For the sequence TATCACACGTGTGTTG, the “relative binding free energy” value was -0.01 kcal/mol. With TCTTCCACGTGGTGTG, the “relative binding free energy” value is -0.04 kcal/mol. Then TTGTTCACGTGGTTCT, with 0.15 kcal/mol.

On to TGAAGCACGTGGCAAG, for which the “relative binding free energy” value came out at 0.04 kcal/mol.

As for GTTGGCACGTGCATAT, the “relative binding free energy” value was -0.23 kcal/mol.

On to GAACGCACGTGGTATG, for which the “relative binding free energy” value was -0.11 kcal/mol. Regarding TGGCTCACGTGTTAGA, the “relative binding free energy” value was found to be 0.32 kcal/mol. Then GAGTCCACGTGGCGTG, with 0.05 kcal/mol. In the case of CTTGTCACGTGTCGTG, the “relative binding free energy” value is 0.08 kcal/mol. Then AGCTTCACGTGGTGCT, with 0.16 kcal/mol; and ATAGGCACGTGTGGTG, with -0.15 kcal/mol; and ATCTGCACGTGGTCTT, with 0.02 kcal/mol. Turning to TAGGACACGTGTCGGT, the “relative binding free energy” value stood at 0.06 kcal/mol. The value for CGGGGCACGTGGAGTA was -0.09 kcal/mol; that for TTCGACACGTGTGCGT was -0.05 kcal/mol. Regarding TGGGGCACGTGGACGG, the “relative binding free energy” value is -0.21 kcal/mol.

For the sequence AAGTGCACGTGAATGA, the “relative binding free energy” value stood at 0.21 kcal/mol. As to TTGAGCACGTGAGGCT, the “relative binding free energy” value worked out at 0.19 kcal/mol. With TTTAGCACGTGTAGGC, the “relative binding free energy” value is -0.03 kcal/mol. As to AACGTCACGTGTAGTG, the “relative binding free energy” value worked out at 0.23 kcal/mol. Then TGGGACACGTGATGCT, with 0.18 kcal/mol; and GGCGCCACGTGGTAGG, with -0.04 kcal/mol.

For TCTTGCACGTGGCAGG, the “relative binding free energy” value was -0.05 kcal/mol. Regarding ATAAGCACGTGTTTTG, the “relative binding free energy” value was -0.08 kcal/mol. The value for CGACGCACGTGTGTGT was -0.1 kcal/mol; that for TGAAACACGTGGCAGG was 0.05 kcal/mol. The value for AATAGCACGTGGGCTA was -0.16 kcal/mol.
